Measured values from the supplement of paper PMC10681739.
In all, about 4,100 sequences were measured (“arbitrary fluorescence units”: median about 780, highest 2% from about 22,000 on). This is one part of the list.

Each sequence was assayed against T1, ETS1 (UniProt P14921) (assay: ETS1 binding intensity (PBM fluorescence), ETS1 alone (arbitrary fluorescence units); higher = stronger binding). Conditions: ETS1 concentration 1 nM; RUNX1 concentration 0 nM.
T1 sequence: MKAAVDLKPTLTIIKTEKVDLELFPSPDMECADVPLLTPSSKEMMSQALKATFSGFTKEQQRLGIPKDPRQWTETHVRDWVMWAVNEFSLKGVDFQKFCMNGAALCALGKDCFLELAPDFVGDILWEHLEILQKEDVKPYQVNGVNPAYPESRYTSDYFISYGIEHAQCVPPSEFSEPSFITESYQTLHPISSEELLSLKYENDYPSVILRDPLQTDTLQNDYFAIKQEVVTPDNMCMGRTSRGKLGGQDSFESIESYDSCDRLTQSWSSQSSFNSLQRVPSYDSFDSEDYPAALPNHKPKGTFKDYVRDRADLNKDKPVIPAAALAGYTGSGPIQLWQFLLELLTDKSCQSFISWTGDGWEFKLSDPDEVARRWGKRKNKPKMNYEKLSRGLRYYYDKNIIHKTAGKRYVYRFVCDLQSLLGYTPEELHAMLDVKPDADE
Summary of the method: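 Full-length recombinant human ETS1 (1 nM, no RUNX1) was incubated, per standard PBM protocols, on double-stranded Agilent 4 × 180k arrays of 36-bp genomic probes whose RUNX1 partner site was mutated. Bound ETS1 was detected with anti-ETS1 antibody (Cell Signaling Technology 14069) and Alexa488-conjugated secondary antibody, then scanned on a GenePix 4400A. Binding level is spot fluorescence intensity, summarised over replicate spots (four printed per sequence) and not normalised.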

First: CTCCAAGCCCAGAGAGCACCCCTTCCTGCCCGGACA
Second: TCTCTTTGGTGGATTCTTCTTTATCTTCCTGGCTAG
The ETS1 binding intensity of the first is higher: 737 for the first, 552 for the second.

Going from AGCTTGCTTCCTGTCCCCAAAACTCACAGCACACGG to GCCTCCTCAGGAAATTGCCCAAAATAGCGACATGTT, the ETS1 binding intensity falls from 15500 to 1420.

Compared with CTTCTGGCCGTAAGGCGCCAGCGCTTCCGGGCCCCA, TTGGTGCTTAGACCTGGGGAGGGGCAGGATGTGGCA is lower in ETS1 binding intensity: 1270 for the first, 698 for the second.

Compared with TGGAACCATCACCCTCAACCAGAGGAAACTGTCTGG, GCCAACAGGAAGCTGGAAGCCAAACGCACTGTGTGC is higher in ETS1 binding intensity: 436 for the first, 3500 for the second.

Going from ATAGTGCAGTGAGCCAACATGGGGGAAATGCCTGGA to GCGCAAGGAAGGACTGCAAGGAGGCCGAAGGTTAAA, the ETS1 binding intensity falls from 415 to 326.

Going from AAAATCACATTGCCTGTGCTGCAGGCCGGAAAGCTG to GCCAAGAGGGAGACGGCGTGCCTTTCCTGCAGCCGA, the ETS1 binding intensity falls from 339 to 331.

First: GGTTTCACTTCCTGCGTTGGGCCTTGTAGCCTCCTT
Second: GACGGCCGCTTTTGGCGCGGGACTTCCTGCCTGGCC
The ETS1 binding intensity of the first is higher: 12700 for the first, 3070 for the second.

Going from GTGCGCCTACGGCGGCGACGAAACCGGAAGACAAGC to TCCGCCGAAACCCGACTGGGAGGTGGCGGAACGACT, the ETS1 binding intensity falls from 1690 to 326.

Compared with GAATGACAGGAAGATGATTAGTGATAGTGGATTTGG, GCCGTGAATGCGAGCTCTCCTGCCGGAAGCTGCCCC is lower in ETS1 binding intensity: 991 for the first, 883 for the second.

Going from AGCGAGCGGAACAAGCTGGCGGCGGCCAAGTGCAGG to GCAGGAAGCAGGTGGCAGGGAGTGGACCTACAGCAT, the ETS1 binding intensity rises from 469 to 600.

First: CTGGCGGACAGCGGCGCACTTCCGTAGAGGTGGACA
Second: GCTAGACAGGAAACAGTGAGCTTCTGTGAGCAGGAG
The ETS1 binding intensity of the first is lower: 1930 for the first, 4180 for the second.

Compared with GTGGTCGGGAGGGGAAGTGAGGCGGCTACCTCGGCG, GTGTTTATCACACGCGGGCCCTCAGGAAGTGCATCA is lower in ETS1 binding intensity: 879 for the first, 452 for the second.

First: CTTGGCTTATTCTGGGAGCCACTTCCCTGGCTTTCA
Second: CTCCACCGGATGCAGCAATGAAGGCCGTAGGAATGG
The ETS1 binding intensity of the first is lower: 338 for the first, 8440 for the second.

Going from GACAGGAAGCCCGCGGCAGCCTCCGAGGTTGCAGAT to AGTGCTGTAGTTTGACTTTGTTTTTCCTGTAGCCAG, the ETS1 binding intensity falls from 2230 to 494.

Going from GCCACACTTCCGGCGGGGCTGCGACTGCAGAGGGGC to AACGGACCCGGAAGGGGCAGGTCTTGTGAGCGGGTC, the ETS1 binding intensity falls from 38700 to 912.

Going from TCTTTAGTGTAGTTTTGGTAGGAAGGAAAGTAGTTT to GTGAGAGGAAGTGGGCGCTGGTTTAATGTGCTCAGC, the ETS1 binding intensity rises from 583 to 1900.

First: GGCCAGGCGCTGCAGGCAGTCATTTCCTTAGCAACT
Second: AATCATTTCCTGCCCTAACGTTTTTGGTCTGCCTAG
The ETS1 binding intensity of the first is lower: 495 for the first, 21400 for the second.

Compared with CCGCTAGCCTGCAGCGCTCGGCTTCCTGGTAATTCT, AGCCATCCTGATAGGAGATCCTCCCACCCCAGCTGA is higher in ETS1 binding intensity: 448 for the first, 821 for the second.

First: TCACAATCGCTCACAAAGACAGGAAGTAACTGTCAG
Second: TCGGGCTGCCGAAGAGCAGCTATTTCCTGTCTGCAC
The ETS1 binding intensity of the first is lower: 3450 for the first, 5010 for the second.

Compared with CGGGCCCGTAGATATCACACGCACCCGGAAGTCCTC, AAGCCAGGATACCGAAGCCCTGCAGGATGTGACTCA is lower in ETS1 binding intensity: 822 for the first, 672 for the second.

Going from GCTGCACCTCACGGACAGGGACCCGGATGGAAAGCT to GCCAAGGCCTTCCGCCGAGTTGGCTTTTGGGTTGTT, the ETS1 binding intensity rises from 346 to 898.

Going from GCGCCCCGCTTCCGGGGCCGCCCTAAACGGCGGCCG to AGTGGATAGCACTTCCTTCTCTTACGACAGTTCCTT, the ETS1 binding intensity falls from 10100 to 2450.

Going from GAACCTTGGCGCGGCGACGCTAGTTTCCGGCGGGCT to GAGCGCGGAACTCGCCACGGTAAGGATTACGACAGG, the ETS1 binding intensity falls from 1270 to 403.

Going from AGACAAAGTGCTTGTAAGCCACTTCCTCCACACCCT to CATCTCGGAAACGGACAGCAAGATCGCGCATTAACA, the ETS1 binding intensity falls from 1130 to 431.

Going from AACCCAGGCTTCCTGACTCGCCGTCTTGTTATCAGT to CTGCCTTGCTTTTCCGGTCGCCGCTGTCCTCTGCGC, the ETS1 binding intensity rises from 1310 to 6060.

Going from GCCTTACTGCCCCAAACGTCACTTCCTTCGGCCGCT to ACGCCGCGCATCCGCGCTTTACGGCGGGCGCCAAAT, the ETS1 binding intensity rises from 949 to 1580.

Going from CCCCGGAACCGAAGGCCACCTCTTGGGGCTGCGAGC to CCTTCAGGCCGCTGCGCGGGGCACGCCGGGAAGCGC, the ETS1 binding intensity falls from 400 to 305.

Going from GACTGCGCCGGACGCGCCAGCCCTGCGCGATGACGT to CGTGGCCGGAAAGCTCTCAGCGGCGAGCACCGAGGG, the ETS1 binding intensity rises from 678 to 715.

Compared with TCTTGCTGGTACTGCTGCACAGCAGGAAGTGGAAAC, ACTGATAACAAGACGGCGAGTCAGGAAGCCTGGGTT is lower in ETS1 binding intensity: 1140 for the first, 408 for the second.

Going from GAAGCCCCGAAATTATTGGGGGGCTTCCTCCCGCGC to CGTGTGAGGGGGCGCAAGGCAGCGGCAGCTTCCGCC, the ETS1 binding intensity rises from 393 to 830.

First: GGCGTCACATGACCATGAACACTCTTCCGCTACGGC
Second: TACCTACAGGAAATGAGACACACCTCAGGCCGATCC
The ETS1 binding intensity of the first is lower: 575 for the first, 5550 for the second.

TGTATGTTTCGTGGGGGCGGAAGTGGAGTGAAAGAC was tested, and the ETS1 binding intensity was 3560.
